These results are taken from publication PMC8119438.

Results are given in words; binding and its absence hold for the method and conditions named. Some binding calls cover weakened binding; strength is not graded here. Where a sequence is shown, tags or fusion partners need not be part of it.

What all share (test): two-hybrid; yeast with pGAD-C1 and pGBD-C1 constructs of RILP, RILP-L1 or RILP-L2; growth at 30 °C on SC-AHLW selection medium for one week (Supplementary figure S1)
Assay [1] concerns the target T1, RILP-L1 (yeast two-hybrid fusions) (mouse) (UniProt Q9JJC6).
T1 sequence: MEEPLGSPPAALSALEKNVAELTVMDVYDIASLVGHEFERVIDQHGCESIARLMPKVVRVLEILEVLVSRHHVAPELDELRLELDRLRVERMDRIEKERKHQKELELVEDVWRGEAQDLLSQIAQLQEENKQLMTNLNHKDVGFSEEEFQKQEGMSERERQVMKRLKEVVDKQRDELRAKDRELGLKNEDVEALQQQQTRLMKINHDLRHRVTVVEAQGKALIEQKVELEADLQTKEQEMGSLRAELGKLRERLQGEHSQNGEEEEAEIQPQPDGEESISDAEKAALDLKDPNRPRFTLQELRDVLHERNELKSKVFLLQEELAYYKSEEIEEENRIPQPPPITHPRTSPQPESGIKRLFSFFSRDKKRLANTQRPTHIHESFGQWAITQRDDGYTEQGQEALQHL

In assay [2] the target is T2, RILP-L2 (yeast two-hybrid fusions) (mouse) (UniProt Q99LE1).
T2 sequence: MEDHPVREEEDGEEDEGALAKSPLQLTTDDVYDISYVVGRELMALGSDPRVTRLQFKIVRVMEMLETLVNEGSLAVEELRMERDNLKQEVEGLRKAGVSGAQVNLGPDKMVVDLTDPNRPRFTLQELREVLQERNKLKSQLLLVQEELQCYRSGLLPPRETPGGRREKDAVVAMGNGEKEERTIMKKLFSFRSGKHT

Assay [3] addresses RILP (yeast two-hybrid fusions) (mouse) (UniProt Q5ND29).

B1: RILP (yeast two-hybrid fusions) (protein, UniProt Q5ND29 1-369)
chain: MEPRRAAPRLPSQASSSVGAGSAAELVYHLAGALGTELQGLARRFGPDAAAGLVPLVVRALELLEKAAVGPAPDSLQVSAQQAEVELRRLREENQRLRQELGSGPQEERALLRQLKEVTDRQRDELRAHNRDLQRRSQETEALQEQLQRLLLINSELRHKLAAVQTQLRAAQDRERERQIAQDGSSQLAKEQSLEPDAATSDDPVDTQKQPGNLPEAVQCGFSREELKQILQERNELKANVFLLKEELAYFQRELLTDHRVPGLLLEAMKVAVKKQRRKIKAKMLGTPEEAESSEDEDGSWLLLSNDKEDVPLVPESRIQNFFGLWYRGETEAPEAETSNPASSSLQKGEETPQQPHLQPVNSPPAPNS
For B1, the results for the binding entry in assay [1], in assay [2] and in assay [3] were “no binding”, “no binding” and “binds”, respectively.
